Measured values reported in PubChem BioAssay AID588855 (National Center for Advancing Translational Sciences (NCATS), 2011).
Hit rate of the full screen: of about 410,000 compounds, about 5,000 (1.2%) were called active. Inconclusive means that the source gave no clear call. Such entries were picked first, then a sample of the others. The call rests on the fitted dose curve; in most records, active means well fitted inhibition curve with a large enough effect; inconclusive means small, poorly fitted or top-dose-only effect; inactive means no such curve, though single readings can be large or run the other way. Potencies of inconclusive entries are doubtful fits and often do not repeat.

test: qHTS for Inhibitors of TGF-b; settings: HepG2 CAGA-GFP TGF-b/SMAD3 reporter, GFP fluorescence, 18 h, TGF-beta stimulated, 500 pg/mL final; series mostly up to 46.1 µM; further: nearly all actives have a fitted effect of over 65% in size
How it was run: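 Inhibition of TGF-beta-driven CAGA-GFP reporter expression in HEPG2 cells is measured by cellular GFP fluorescence after 18 h stimulation with 500 pg/mL recombinant TGF-beta in 1% FBS medium at 37 degrees C.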
Potency means the concentration at half of the fitted maximal effect; tags describe the fitted curve by direction and shape.

| Structure (SMILES) | Potency |
| --- | --- |
| CCc1nnc(NC(=O)CSc2nnc(C(C)NC(=O)c3ccccc3)n2C)s1 (stereo unspecified) | inactive |
| Oc1c(C(c2ccccc2Cl)N2CCCC2)ccc2cccnc12 (stereo unspecified) | active: 0.447 µM |
| CCOCCOC(=O)c1[nH]c2c(c1C)C(=O)CC(c1cccs1)C2 (stereo unspecified) | inconclusive: 7.08 µM [inhibitor, full curve] |
| Cc1ccc(-c2cc(C(=O)N/N=C/c3c[nH]c4ccccc34)[nH]n2)cc1 | inconclusive: 22.4 µM [inhibitor, single point] |
| CN1CCN(C(=O)c2ccc3c(c2)N(Cc2cccc(Cl)c2)C(=O)c2ccccc2S3=O)CC1 (stereo unspecified) | inactive |
| O=C(NC1CCCCC1)Oc1cc2oc(=O)sc2cc1Br | inactive |
| COC(=O)c1cc(-c2cccs2)nn1-c1ccccc1 | inactive |
| CC1Sc2ccc(C(=O)NCc3cccc(C(F)(F)F)c3)cc2NC1=O (stereo unspecified) | inconclusive: 31.6 µM [inhibitor, single point] |
| COc1ccc(-c2cnc3n2CCCCC3)cc1 | inconclusive: 14.1 µM [inhibitor, single point] |
| CC(C)C(=O)Nc1nnc(NC(=S)Nc2ccccc2)s1 | inconclusive: 1 µM [inhibitor, full curve] |
| CC1(C)C(CSc2nc3ccccc3[nH]2)C1(Cl)Cl (stereo unspecified) | inconclusive: 25.1 µM [inhibitor, single point] |
| CCCn1nnc(NC(=O)COc2ccc(Cl)cc2)n1 | inactive |
| Cc1ccc(CNC(=O)CCc2c(C)c3cc4c(C)coc4cc3oc2=O)cc1 | inactive |
| COC(=O)c1c(SCC(=O)Nc2ccccc2C(F)(F)F)[nH]c2ccc(Cl)cc2c1=O | inconclusive: 0.562 µM [inhibitor, full curve] |
| CC1CCCN(c2ccc([N+](=O)[O-])cc2C(=O)c2ccccc2)C1 (stereo unspecified) | inconclusive: 14.1 µM [inhibitor, partial curve, poor fit] |
| COc1ccc(CCNC(=O)c2cc3c(=O)n4ccccc4nc3n(Cc3ccco3)c2=N)cc1OC | inactive |
| O=C(c1ccoc1)N1CCN(c2cc(-c3cccnc3)nc3cc(-c4cccc(Cl)c4)nn23)CC1 | inconclusive: 11.2 µM [inhibitor, partial curve, poor fit] |
| CCOC(=O)c1nc2sc3c(c2c(=O)[nH]1)CCCC3 | inconclusive: 10 µM [inhibitor, single point] |
| O=C(CCC1N=C2c3ccccc3N=C(SCc3ccc(F)cc3)N2C1=O)N1CCN(c2ccccc2)CC1 (stereo unspecified) | inactive |
| COCCNC(=O)C(=O)N/N=C/c1ccc(C(=O)OC)cc1 | inactive |
| C/C(=N\OCC(=O)OCC(=O)N(Cc1ccccc1)C(C)(C)C)c1ccc2c(c1)OCO2 | inconclusive: 6.31 µM [inhibitor, single point] |
| Cc1ccc(Cl)cc1N1CCN(C(=O)c2ccc3nc[nH]c3c2)CC1 | inconclusive: 15.8 µM [inhibitor, single point] |
| CCCCN(Cc1cc2ccccc2[nH]c1=O)S(=O)(=O)c1ccc(C)cc1 | inconclusive: 35.5 µM [inhibitor, single point] |

| Structure (SMILES) | Potency |
| --- | --- |
| O=C1CCC(/C=C/c2ccccc2)=NN1Cc1ccccc1Cl | inconclusive: 35.5 µM [inhibitor, single point] |
| O=C(CSc1nc2ccc(Nc3nc(N4CCOCC4)nc(N4CCOCC4)n3)cc2s1)Nc1ccccc1Cl | inactive |
| COc1ccccc1-c1cc2nc(NCCOc3ccccc3)ccn2n1 | inconclusive: 35.5 µM [inhibitor, single point] |
| CN(CC(=O)NCc1ccccc1)CC(=O)Nc1ccc(Cl)c(C(F)(F)F)c1 | inconclusive: 15.8 µM [inhibitor, single point] |
| COc1ccc(N(C)C(=O)c2oc(=O)c3ccccc3c2-c2ccc(C)cc2)c(OC)c1 | inconclusive: 22.4 µM [inhibitor, single point] |
| CCC(C(=O)OCC(=O)c1c(N)n(CC(C)C)c(=O)n(C)c1=O)c1ccccc1 (stereo unspecified) | inactive |
| CCOc1cc(C2C(C(=O)c3ccco3)=C(O)C(=O)N2CC2CCCO2)ccc1O (stereo unspecified) | inactive |
| COc1ccc2[nH]c(C)c(CCNC(=S)Nc3ccc(F)cc3)c2c1 | inconclusive: 14.1 µM [inhibitor, single point] |
| O=C(Nc1ccc(F)cc1F)c1ccc(-n2cnc3cccnc32)cc1 | inconclusive: 20 µM [inhibitor, single point] |
| Cc1ccc(S(=O)(=O)N2CC3(O)CN(C(=O)OC(C)C)N(C(=O)OC(C)C)CC3(OC(=O)Nc3cccs3)C2)cc1 (stereo unspecified) | active: 12.6 µM |
| CC(C(=O)c1ccc(-c2ccccc2)cc1)[n+]1cccc(NC(=O)c2ccccc2)c1 (stereo unspecified) | inconclusive: 35.5 µM [inhibitor, single point] |
| CN(c1ccccc1)c1ccc(/C=C(\C#N)c2nnc3n2CCCCC3)cc1[N+](=O)[O-] | inactive |
| Cc1c(NC(=S)NC(NC(=O)CC(C)C)C(Cl)(Cl)Cl)c(=O)n(-c2ccccc2)n1C (stereo unspecified) | inconclusive: 3.55 µM [inhibitor, single point] |
| O=C(Nc1cccc(Cl)c1)c1ccc2ncsc2c1 | inactive |
| O=C(c1cc(Sc2cccc(Cl)c2)nc2ccccc12)N1CCN(c2ccccn2)CC1 | inactive |
| Cc1nc2nc(NC(=O)C(C)C)[nH]n2c(=O)c1Cc1ccccc1 | inactive |
| COc1cc2cc(CN(C(=O)Nc3ccccc3)C3CCCC3)c(=O)[nH]c2cc1OC | inactive |
| N/C(=N\OC(=O)/C=C/c1ccc(Br)cc1)c1ccccn1 | inconclusive: 3.98 µM [inhibitor, full curve] |
| COc1ccc(-c2csc3ncnc(Nc4cccc(F)c4)c23)cc1 | inactive |
| Cc1ccc(-c2nn(-c3ccc(F)cc3)cc2C(=O)NCCCN2CCCC2=O)cc1 | inconclusive: 17.8 µM [inhibitor, partial curve, poor fit] |
| COc1ccc(/C=C2\CCc3ccccc3C2=O)cc1Cn1nc(C)cc1C | inconclusive: 35.5 µM [inhibitor, single point] |
| Cc1ccc(C(=O)CSc2nc(-c3ccccc3)nc3c2CCCC3)cc1C | inactive |
| C=CCn1c(O)c(N=Nc2ccccc2O)c2ccccc21 | inconclusive: 11.2 µM [inhibitor, partial curve, poor fit] |
